# Measurements as given in the antibiotic and cytotoxicity screens of Wong et al. (2023).
# This is one part of the list.
# Experiments:
# HSkMC = human skeletal muscle cells; test: cytotoxicity call (relative viability < 0.9); conditions: 10 µM
# HepG2 = test: cytotoxicity call (relative viability < 0.9); conditions: 10 µM
# S. aureus RN4220 = test: growth inhibition call (relative growth <= 0.2); conditions: 50 µM
Structure (SMILES),cytotoxicity call (HSkMC),cytotoxicity call (HepG2),growth inhibition call (S. aureus RN4220)
CC(C)NC(=O)N(C)C[C@@H]1Oc2ccc(NC(=O)Cn3cnnn3)cc2C(=O)N([C@H](C)CO)C[C@@H]1C,inactive,inactive,inactive
O=C(C[C@H]1CC[C@H]2[C@@H](COC[C@@H](O)CN2Cc2cc(F)ccc2F)O1)N[C@H]1CCN(Cc2ccccc2)C1,inactive,active,inactive
CC1=C2C(O)C(=O)OC3CC4C(C)(C)C(=O)C=CC4(C)C(CC1)C23C (configuration not stated),inactive,inactive,inactive
CC(=O)N1[C@H](CO)[C@H](c2ccccc2)[C@@H]1CNC(=O)CN1CCOCC1,inactive,inactive,inactive
C[C@@H]1CN([C@H](C)CO)C(=O)c2cc(NC(=O)CCN3CCOCC3)ccc2O[C@@H]1CN(C)CC1CCCCC1,inactive,inactive,inactive
C[C@H]1CCCCO[C@H](CN(C)CC2CCCCC2)[C@@H](C)CN([C@@H](C)CO)C(=O)c2cc(NS(=O)(=O)c3ccc(F)cc3)ccc2O1,inactive,active,inactive
CCCNC(=O)N1C[C@@H](C)[C@H](OC)CN(C)C(=O)c2ccc(NS(=O)(=O)CC(F)(F)F)cc2OC[C@@H]1C,inactive,inactive,inactive
C[C@H]1CN([C@@H](C)CO)C(=O)c2cccc(NC(=O)C3CCOCC3)c2O[C@H]1CN(C)Cc1ccc(Oc2ccccc2)cc1,inactive,inactive,inactive
C[C@@H]1CCCCO[C@@H](CN(C)C(=O)Nc2ccc(F)cc2)[C@H](C)CN([C@@H](C)CO)C(=O)c2cc(NS(=O)(=O)c3ccccc3)ccc2O1,inactive,inactive,inactive
